Test results taken from the supplement of paper PMC11417369.
This is one part of the list.

These sequences were tested on PfAP2-HC AP2 domain (GST-tagged) (assay: gcPBM binding intensity (ln(normalized median fluorescence intensity)); higher = stronger DNA binding).
Summary of the method: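 After 1 h on an Agilent 4 × 180k array of primer-extended double-stranded 36-bp intergenic genomic probes and negative controls, bound GST-tagged P. falciparum DNA-binding domains were detected with Alexa488 anti-GST antibody and scanned at 488 nm. The domains had been expressed in E. coli, and binding took place in 1× PBS with 1% milk, 0.2 mg/ml BSA, 0.5% salmon testes DNA and 0.03% Triton X-100. Binding intensity is the highest Masliner-normalised natural-log median intensity across replicate spots of either probe orientation.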

Going from “TATAATATAATATATATATATATATATATATAAGAA [CACACA_negctrl_site78]” to “TTCATATAAATACATGCACACAAAAATATCAATACA [CACACA_site8753]”, the “gcPBM binding intensity (ln)” value rises from 9.76 to 10.

Compared with “ATATATTTTATTACCAGTACATATATTAAAATAATA [XGTACX_site8440]”, “ATTAAAGAGATATATACACACATTATGGGGGAATAA [CACACA_site6226]” is higher in “gcPBM binding intensity (ln)” value: 9.39 for the first, 9.85 for the second.

Compared with “TGAGGAAACATGAGATGTACATATAAATTTTTTTTT [XGTACX_site2595]”, “CCTAAATATTTTTTATGTACATATTTATCTAAATTT [XGTACX_site6835]” is higher in “gcPBM binding intensity (ln)” value: 9.56 for the first, 9.78 for the second.

Compared with “ATAGAAATTATAAATAGTACATAATAAAAATGAGCA [XGTACX_site822]”, “TCGTTTCCTTAAAATTGTACTTTTTTTTTTTTTTTT [XGTACX_site64]” is lower in “gcPBM binding intensity (ln)” value: 10 for the first, 9.56 for the second.

First: TATTATAAAGAAATTACACACATGCAATGAAAAAAA [CACACA_site1697]
Second: AGAGTATATATATATGCATGCATATCTCATATTTAT [TGCATGCA_site509]
The “gcPBM binding intensity (ln)” value of the first is lower: 9.85 for the first, 9.94 for the second.

First: TAATGATAAATACATACACACAAAAAATAATATATA [CACACA_site2576]
Second: TGTTATTATTTGTACACACACATATAGATCCTTGTT [CACACA_site7667]
The “gcPBM binding intensity (ln)” value of the first is lower: 10.1 for the first, 10.2 for the second.

First: AAACAAAATGGTAACACACACATATATAAATATGTA [CACACA_site6994]
Second: TAAGAAATAAATAGTACACACATAGACACCCACCCA [CACACA_site8429]
The “gcPBM binding intensity (ln)” value of the first is lower: 10.2 for the first, 11.3 for the second.

Going from “TAATAAAAGATATATACACACAAATAAATAAATAAA [CACACA_site7818]” to “AAAAAAAAATATATATATATATATATAAATAAATTT [CACACA_negctrl_site519]”, the “gcPBM binding intensity (ln)” value falls from 10 to 9.8.

Compared with “ATAATATAAACATATTGTACACATATATTGCTATTT [XGTACX_site2799]”, “AAATATAAAAAAAATATATAATTTTTACATCGAATT [CACACA_negctrl_site544]” is lower in “gcPBM binding intensity (ln)” value: 9.82 for the first, 9.53 for the second.

Going from “AACGAGCAAGACGGGGTGCACACAAACTAATATGCC [GTGCAC_site9436]” to “TTCTATGAATTCATAGTGCAAATGAGTTATTTTTTC [GTGCAC_site9709]”, the “gcPBM binding intensity (ln)” value falls from 10 to 9.52.

Compared with “TTATTATTGTTATGTTGTACTTTTACAAACTTTTTG [XGTACX_site8797]”, “AAGAAAATAGGGTTCATAGGATTATACTTTTGGAAT [TGCATGCA_negctrl_site80]” is lower in “gcPBM binding intensity (ln)” value: 9.7 for the first, 9.66 for the second.

Compared with “TATTTTATCTAAGGATGTACATTATTAAGAAAATGT [XGTACX_site6123]”, “ATATATTTATTAAGGTGTACAAAAATTATGTTGCAT [XGTACX_site7546]” is higher in “gcPBM binding intensity (ln)” value: 9.43 for the first, 9.61 for the second.

Compared with “CTTTTTTAAATTATTGCACACAAAAATGAAAGGAAA [CACACA_site8412]”, “ACATCAAGCAGACACACACACACACCCACCCACCGA [CACACA_site371]” is higher in “gcPBM binding intensity (ln)” value: 9.67 for the first, 10.7 for the second.

Going from “TAGAAATATAATTAATGTACATATGATATTATATAT [XGTACX_site923]” to “ATTTATTTATATAGAAGTACATATTTATTTATATAT [XGTACX_site6283]”, the “gcPBM binding intensity (ln)” value falls from 9.62 to 9.53.

First: TTGTGTTCTTATTTTTACACCGAAAAATATTAAAAG [CACACA_negctrl_site535]
Second: CCTTTATACATTTTCTGTACTGATATATATTAAAAA [XGTACX_site8467]
The “gcPBM binding intensity (ln)” value of the first is higher: 9.53 for the first, 9.51 for the second.

Going from “GTATGAAAAAAAATATGTACACATATATATTTGGTA [XGTACX_site6309]” to “ATATATATATATACAACACACATGTAATATATAAAT [CACACA_site3294]”, the “gcPBM binding intensity (ln)” value rises from 9.79 to 9.94.

Compared with “TACTGATCCACATTTATACACACCTCGGTTTGTAGA [CACACA_site417]”, “TTTTTAAATATATAATAGAATTGATTGTATTATATA [CACACA_negctrl_site196]” is lower in “gcPBM binding intensity (ln)” value: 9.74 for the first, 9.46 for the second.

Compared with “TATAGATTCTTTTAATGTACATGTCTTTTCATTTCC [XGTACX_site8348]”, “ATATAAAAAAAAAAAAAAAAATATATATATATATAT [GTGCAC_negctrl_site251]” is lower in “gcPBM binding intensity (ln)” value: 9.62 for the first, 9.25 for the second.

Compared with “TTGGTTTGAAAGAAAGAAATTATTAAAAAGGAAATA [CACACA_negctrl_site26]”, “GATATACTGTCAATTCTACACACCATAGGGGGAGCA [CACACA_site8562]” is higher in “gcPBM binding intensity (ln)” value: 9.26 for the first, 10.3 for the second.

Going from “ATCATAACACCTCCACACAAATAAATATAACATATA [XGTACX_negctrl_site269]” to “ATGAGTGCACAAATATATATATATATATATATATAT [CACACA_negctrl_site404]”, the “gcPBM binding intensity (ln)” value rises from 9.87 to 10.6.

First: CTTTTTATTAAATATGCATGTGTATCAACAGTGAAT [TGCATGCA_site447]
Second: GTTATACGCATATATACACACATATGTAAATATATA [CACACA_site3280]
The “gcPBM binding intensity (ln)” value of the first is lower: 9.5 for the first, 9.86 for the second.

Compared with “TAAAAAAAATAGCATACACACATATATACCTATATA [CACACA_site4535]”, “AAACAATTTATGTGTAGTACATGTTGGAGATAATTT [XGTACX_site6000]” is lower in “gcPBM binding intensity (ln)” value: 9.97 for the first, 9.74 for the second.

Compared with “GAAAATATATTATTTACACACATGTTCAAATTAAAA [CACACA_site3761]”, “TATTAAATATAAGTCACACATAATTTTTCGTCCTTT [CACACA_site5065]” is higher in “gcPBM binding intensity (ln)” value: 9.61 for the first, 9.62 for the second.

Compared with “CATACACCCGGACACACACACACACCCATATATAAT [CACACA_site4494]”, “TTGTTTTTTTCTTTTTGTACATATACAACATACATA [XGTACX_site8996]” is lower in “gcPBM binding intensity (ln)” value: 10.5 for the first, 9.78 for the second.

Compared with “ATATATATATATATATGTACATATATTTTCTTTTTG [XGTACX_site6017]”, “TTGTTCTATAATTATACATGCATTAACAGAGTAAAA [TGCATGCA_site909]” is lower in “gcPBM binding intensity (ln)” value: 9.6 for the first, 9.46 for the second.

Compared with “AAAAACGATTAATGTGTACACACATAGTTATAAACA [CACACA_site8659]”, “TTTTTTTTTTTTTAATGTACAAATATGGTGACAAAA [XGTACX_site8709]” is lower in “gcPBM binding intensity (ln)” value: 9.99 for the first, 9.3 for the second.

First: AGGATAACATACAAAAGTACATAAAACTAAAAAAAC [XGTACX_site26]
Second: TATATATATTTTTGAAGTACTTATTACACTAGCATT [XGTACX_site8965]
The “gcPBM binding intensity (ln)” value of the first is higher: 10.1 for the first, 9.69 for the second.

Compared with “AAGAAAATATAACAAAGTAAAAACATATTATATATA [TGCATGCA_negctrl_site248]”, “TATATTTTGTTTTTGTGTACATATTGGTAGTTATTT [XGTACX_site7659]” is higher in “gcPBM binding intensity (ln)” value: 9.62 for the first, 9.74 for the second.
